In PubChem BioAssay (NCI):
“And” between values parts separate entries of the source, which are not always exact repeats. Equal entries are not always repeated.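 Five concentrations, 48 hours, 96-well plates. GI50 = concentration required for 50% inhibition of growth. TGI: total growth inhibition.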

System: NCI-H322M lung
Test: growth of human tumour cells (NCI), 48 h

| SMILES | TGI | GI50 |
| --- | --- | --- |
| CC1CC[C@@]2(OC1)OC1C[C@H]3[C@@H]4CC=C5CC(OC6OC(CO)C(OC7OC(CO)C(O)C(OC8OCC(O)C(O)C8O)C7OC7OC(CO)C(O)C(O)C7O)C(O)C6O)CCC5(C)[C@H]4CCC3(C)C1[C@@H]2C (stereo not given in full) | 8.61 µM |  |
| O=c1cc(-c2ccccc2F)[nH]c2ccc(N3CCCC3)cc12 | > 100 µM | 0.077 µM |
| Cc1cn(C2CC(O)C(COC(=O)NCCC(F)(F)C(F)(F)C(F)(F)C(F)(F)F)O2)c(=O)[nH]c1=O (stereo not given) | > 100 µM |  |
| COc1ccc(C(=O)c2sc(Nc3ccc(Cl)cc3)nc2N)cc1 | > 88.8 µM |  |
| COc1cc2c(cc1OCCCCN1C(=O)c3cccc4cccc(c34)C1=O)N=C[C@@H]1CCCN1C2=O | 46 µM |  |
| CC(C)(C)c1cc(C2=NNC(c3ccccc3)C2)cc(C(C)(C)C)c1O (stereo not given) | 55.3 µM |  |
| Cc1nn(C(=O)Cc2ccccc2)c2c1C(c1ccc(O)cc1O)SC(N)=N2 (stereo not given) | > 100 µM |  |
| O=C1NC2(CCCCCC2)C2CCCCCCC12O (stereo not given) | > 100 µM |  |
| CC[C@@H]1CC[C@@H]2[C@H](CC[C@]3(C)[C@@H](OS(=O)(=O)c4ccc(C)cc4)CC[C@@H]23)[C@H]1COS(=O)(=O)c1ccc(C)cc1 | > 100 µM |  |
| CN[C@H](C#Cc1c(F)ccc2c1/C(=C/c1[nH]ccc1OC)C(=O)N2)CO | 5.53 µM | 0.659 µM |
| O=C(O/C(=C(/N=Nc1ccccc1)c1ccccc1)c1ccccc1)c1ccccc1 | > 100 µM |  |
| CC(=O)OCC1OC(OC2CC3C(C)(C)C(OC(C)=O)CC[C@]3(C)C3CCC45CC4(CCC5[C@@H](C)C[C@H](O)C(O)C(C)(C)O)[C@]23C)C(O)C(O)C1O (stereo not given in full) | > 10 µM |  |
| COC(=O)C(C#CCCCCC#CC(NC(=O)OCc1ccccc1)(C(=O)OC)C(F)(F)F)(NC(=O)OCc1ccccc1)C(F)(F)F (stereo not given) | > 100 µM |  |
| COc1cccc(-n2nc(C)c3c(N/N=C(\C)c4ccncc4)ncnc32)c1 | > 25 µM | > 25 µM |
| COc1ccc(N=Cc2ccc(N(CCC#N)S(=O)(=O)c3ccccc3)cc2)cc1 | > 100 µM |  |
| O=c1[nH]nc2ccccc2c1Cc1ccccc1 | > 100 µM |  |
| COc1ccc2c(c1)nnn1c3ncccc3c(N=O)c21 | 46.9 µM and 38.3 µM | 9.67 µM and 7.38 µM |
| CCSc1nc2cccc([N+](=O)[O-])c2n1CC | > 100 µM |  |
| Cc1nn(-c2ccccc2)c(C)c1/C=N/N=C1\SCC(=O)N1c1ccccc1 | 88.1 µM |  |
| Cc1ccccc1C(=O)N/N=C/c1ccc(Sc2nccn2C)c([N+](=O)[O-])c1 | > 100 µM |  |
| O=CN/C=C/c1cccc(O)c1 | > 95.7 µM |  |
| CN1CCN(CCOc2ccc(-c3cnc4c(-c5ccc(C(F)(F)F)cc5)cnn4c3)cc2)CC1 | 3 µM | 1.63 µM |
| O=c1ccn(C2CC(O)C(CO)O2)c(=O)[nH]1 (stereo not given) | > 5000 µM | > 5000 µM |

| SMILES | TGI | GI50 |
| --- | --- | --- |
| Cc1ccc(/C=C/c2nnc(N/N=C/c3ccc4c(c3)OCO4)[nH]c2=O)cc1 | 48.1 µM |  |
| O=C(O)C1OC1(c1cccc(Cl)c1)c1ccccc1Cl (stereo not given) | > 100 µM |  |
| CC1OC(n2c3ccccc3c3c4c(c5c6ccccc6[nH]c5c32)C(=O)N(CCN[C@@H]2CCC[C@H]2N)C4=O)CC(O)C1O (stereo not given in full) | 8.73 µM | 1.99 µM |
| NCCCCc1cc(O)c2c(c1O)C(=O)c1ccccc1C2=O | 19.2 µM |  |
| COc1cc(NC(C)CCCN)c2ncccc2c1 (stereo not given) | > 100 µM |  |
| COc1ccc(-c2nc(-c3ccccc3)c(-c3ccccc3)[nH]2)cc1OC1CCCC1 | > 100 µM | > 100 µM |
| COc1cc2c3c(n(CCCCN)c(=O)c2cc1OC)-c1cc2c(cc1C3=O)OCO2 | 8.58 µM | 2.85 µM |
| O=[N+]([O-])c1ccc2c(c1)Cc1cc(N=Cc3ccc4c(c3)OCO4)ccc1-2 | > 100 µM |  |
| CCCNC(=O)CCC(C)C1CCC2C3C(C[C@H](OC(C)=O)[C@]12C)[C@@]1(C)CCC2(C[C@H]1C[C@H]3OC(C)=O)OOC1(CC[C@]3(C)C4C[C@H](OC(C)=O)[C@]5(C)C(C(C)CCC(=O)NCCC)CCC5C4[C@H](OC(C)=O)C[C@@H]3C1)OO2 (stereo not given in full) | > 100 µM |  |
| COc1cc(Nc2c(C#N)cnc3cc(OCCCN4CCN(C)CC4)c(OC)cc23)c(Cl)cc1Cl | 9.19 µM | 0.395 µM |
| COc1c(O)cc2oc(-c3ccc(O)cc3)cc(=O)c2c1O | > 100 µM |  |
| CN(C)CC(CC1=C(CC(CN(C)C)N(C)C)CCC1)N(C)C (stereo not given) | > 100 µM |  |
| N.N.N.N.N.[Cl-].[Co+3].c1ccc(-c2nn[n-]n2)cc1 | > 100 µM | > 100 µM |
| COc1ccc2c(=O)cc(-c3ccncc3)oc2c1OC | > 100 µM |  |
| COc1cc2oc3cc(=O)cc4oc(-c5ccccc5)cc(c2c2c1CCC(c1ccccc1)O2)c43 (stereo not given) | > 100 µM |  |
| O=S(=O)(O)C(=Nc1cccc(Cc2ccccc2)c1)Nc1cccc(Cc2ccccc2)c1 | 32.6 µM |  |
| O=C1Nc2nc3ccccc3n2N=C2CCCC12 (stereo not given) | > 100 µM |  |
| COc1cc(CO)c(CC(=O)NCCCc2ccccc2)cc1OC | > 100 µM |  |
| CNc1ccc2c(c1)[C@@]1(C)c3ccccc3[C@@H](C2)N1C | > 100 µM |  |
| Cc1ccc(N2C(=O)CS/C2=C(\C#N)c2nc3ccccc3[nH]2)cc1 | > 100 µM |  |
| COc1ccc(/C=C/C(=O)c2ccc(O)c(CN3CCN(c4cc5c(cc4F)c(=O)c(C(=O)O)cn5C4CC4)CC3)c2)cc1 | 74.7 µM | 1.47 µM |
| N#CCCN(CCCN(CCCN(C(=O)Nc1ccccc1)c1ccccc1)C(=O)Nc1ccccc1)C(=O)Nc1ccccc1 | > 100 µM | > 100 µM |
| COc1cc(OC)nc(-n2c(N)c(C#N)c3ccc([N+](=O)[O-])cc3c2=O)n1 | > 100 µM |  |

| SMILES | TGI | GI50 |
| --- | --- | --- |
| COc1cc2c(ccc3c4cc(OC)c(OC)cc4c[n+](C)c23)cc1O | > 75 µM |  |
| CC(=O)OCC1OC(c2nc3ccccc3s2)=CC(OC(C)=O)C1OC(C)=O (stereo not given) | > 100 µM |  |
| NCCSC(c1ccccc1)c1ccccc1 | 48.9 µM |  |
| COc1cccc(C2=C(c3c(C)n(C)c4ccccc34)C(=O)NC2=O)c1 | > 25 µM | > 25 µM |
| CC(=O)C1=C(C)N(c2ccc(C)cc2)C2(O)C=CC(=O)C3C(=O)N(c4ccccc4)C(=O)C132 (stereo not given) | 40 µM |  |
| CCCN(CCCc1ccccc1)CCc1ccc2[nH]c(=S)[nH]c2c1 | > 100 µM |  |
| COc1ccc(CC(=O)N2CCC3(C)CC(=O)CC=C23)cc1OC (stereo not given) | > 100 µM |  |
| CC1OC(OC2C[C@](O)(C(=O)CF)Cc3c(O)c4c(c(O)c32)C(=O)c2ccccc2C4=O)CC(N)C1O (stereo not given in full) | 1.73 µM |  |
| C=CCNC(=O)N(CCCC(NC(C)=O)C(=O)NCc1ccccc1)Cc1ccccc1 (stereo not given) | > 100 µM |  |
| COc1cc2c(cc1OC)C(=O)/C(=C/c1ccc(Cl)cc1)CC2 | > 10 µM |  |
| COC(=O)c1ccccc1OCc1cc(=O)oc2ccc(C)cc12 | > 100 µM |  |
| COc1ccc2c(c1)[nH]c1c(/C=C/c3ccccc3)nccc12 | 36.4 µM |  |
| Clc1cc(Cl)cc(C=NC23CC4CC(CC(C4)C2)C3)c1 | > 10 µM |  |
| CCn1cnc(C[C@H](NC(=O)[C@@H](NC(=O)Nc2cc(C(F)(F)F)cc(C(F)(F)F)c2)C(C)C)C(=O)OC)c1 | 5.95 µM | 2.37 µM |
| CCOC1=C2C(=O)OC(=O)C2C2CCCCC2=C1 (stereo not given) | > 100 µM |  |
| CC(=O)NNc1nc(C)c(C(=O)/C=C/c2ccccc2Cl)s1 | > 100 µM |  |
| COc1ccc(C2CC(C)(O)Oc3cc4c(cc32)OCO4)cc1 (stereo not given) | > 100 µM |  |
| Cc1cc(Cl)ccc1Nc1nc(C(F)(F)F)ccc1C(=O)N/N=C/c1ccc(Cl)cc1 | 6.16 µM | 0.8 µM |
| CN1CCN(c2ncc3c(n2)sc2c(=O)n(-c4ccccc4)cnc23)CC1 | > 100 µM |  |
| C#CC1(O)C(COP(=O)(O)OC(COCCCCCCCCCCCCCCCCCC)COP(=O)(O)OCC2OC(n3cc(F)c(=O)[nH]c3=O)CC2O)OC(n2ccc(N)nc2=O)C1O (stereo not given) | 17.4 µM and 11 µM |  |
| CCC1CN(C(=O)c2ccccc2)C(Cc2c[nH]c3ccccc23)C(=O)C1CC(=O)OC (stereo not given) | > 100 µM |  |
| Nc1nc(SCCc2ccccc2)nc2nc3c(c(-c4ccccc4)c12)CCCC3 | > 100 µM |  |
| COCC(O)Cn1ccnc1[N+](=O)[O-] (stereo not given) | > 100 µM |  |

| SMILES | TGI | GI50 |
| --- | --- | --- |
| Cn1c2ccc3cc2c(=S)c2cc(ccc21)OCCOCCOCCOCCOCCO3 | > 10 µM |  |
| COc1ccc(C(=O)/C=C/c2cccc([N+](=O)[O-])c2)c(OC)c1 | > 50 µM | 1.9 µM |
| CC(C)(C)OC(=O)N1CCC(C(=O)O)CC1 | > 100 µM |  |
| Cc1cc(NCCN(C(C)C)C(C)C)nc(/N=C(\N)Nc2ccc(Cl)c(C(F)(F)F)c2)n1 | 3.87 µM | 1.33 µM |
| N#C/C(c1nc2ccccc2[nH]1)=c1\s/c(=C/c2ccc(Cl)cc2)c(=O)n1-c1ccccc1 | > 100 µM |  |
| C=CCC(N(C)C(=O)[C@H](Cc1ccccc1)NC(=O)OCc1ccccc1)P(=O)(Oc1ccccc1)Oc1ccccc1 (stereo not given in full) | > 100 µM |  |
| CCC1CN2C(=N1)c1ccccc1-c1cc(Cl)ccc12 (stereo not given) | 40.2 µM | 5.25 µM |
| C/C=C\C(CC(=O)NCCC1CN(S(=O)(=O)c2ccc(C)cc2)c2ccccc21)CC(=O)OC (stereo not given) | > 100 µM |  |
| CCN(Cc1ccc(F)cc1)c1ccc(CO)c(F)c1 | > 86.1 µM | 23.5 µM |
| CCOP(=O)(OCC)C(C)(CC)N/C(=N/C(NC(C)=O)(C(F)(F)F)C(F)(F)F)NC1=NC(C(F)(F)F)(C(F)(F)F)N=C(C(F)(F)F)O1 (stereo not given) | > 100 µM |  |
| CN(C)CCCNc1ccc([N+](=O)[O-])c2nc3ccccc3c(N)c12 | 1.89 µM |  |
| O=C(CC(=O)C1=CNc2ccccc2S1)C(=O)Nc1ccc(Cl)cc1 | > 50 µM |  |
| O=c1c2ccccc2c(=O)n2n1CC=CC2 | > 100 µM |  |
| COc1ccc(-c2nc(/C=N/Nc3cc(C)nc4ccc(Cl)cc34)c(C)o2)cc1 | 3.07 µM | 1.68 µM |
| NC(=O)c1c(NC(=O)c2ccccn2)sc2c1CCC(=O)C2 | > 100 µM | > 100 µM |
| CCC(C)C1=C(OC(C)=O)[N+]2([O-])Oc3ccc(-c4c(OC(C)=O)c(OC(C)=O)c(-c5ccc(OC(C)=O)cc5)c(OC(C)=O)c4OC(C)=O)cc3OC2(C(C)CC)C(=O)N1OC(C)=O (stereo not given) | > 50 µM |  |
| COc1cccc(-c2nn(-c3ccccc3)cc2-c2ccnc(NCCCNC(=O)Nc3ccc(Cl)c(Cl)c3)c2)c1 | 14.7 µM | 2.71 µM |
| O=C(CCc1ccc(O)c(O)c1)NCCc1cc(O)cc(O)c1 | > 100 µM |  |
| COc1cc([C@@H]2c3cc4c(cc3[C@@H](OC(=O)c3ccc(N)cc3)C3COC(=O)[C@@H]32)OCO4)cc(OC)c1O (stereo not given in full) | > 95 µM |  |
| O=C(NCCNCCCNC(=O)c1cc(-c2ccccc2)nc2ccccc12)c1cccc(O)c1O | > 100 µM |  |
| c1cc2n(n1)CCN2 | > 10000 µM |  |
| CC(C)OCC1CC(CC(=O)Nc2nncs2)C(=O)O1 (stereo not given) | > 100 µM |  |
| O=C(/C=C/c1ccc(O)c(-c2cc(C(=O)/C=C/c3ccc(O)cc3)c(O)cc2O)c1)c1ccc(O)cc1O | > 50 µM |  |
